About 14,000 (4.5%) of roughly 310,000 compounds showed an effect of 50% or more. Effects have a minus sign here. The list shows a part of the results.
Each compound was assayed against human ether-à-go-go-related gene (hERG) potassium channel (human, UniProt Q12809) (assay: primary screen, population patch clamp on CHO cells stably expressing hERG).
Sequence of human ether-à-go-go-related gene (hERG) potassium channel (Q12809 whole entry, looked up): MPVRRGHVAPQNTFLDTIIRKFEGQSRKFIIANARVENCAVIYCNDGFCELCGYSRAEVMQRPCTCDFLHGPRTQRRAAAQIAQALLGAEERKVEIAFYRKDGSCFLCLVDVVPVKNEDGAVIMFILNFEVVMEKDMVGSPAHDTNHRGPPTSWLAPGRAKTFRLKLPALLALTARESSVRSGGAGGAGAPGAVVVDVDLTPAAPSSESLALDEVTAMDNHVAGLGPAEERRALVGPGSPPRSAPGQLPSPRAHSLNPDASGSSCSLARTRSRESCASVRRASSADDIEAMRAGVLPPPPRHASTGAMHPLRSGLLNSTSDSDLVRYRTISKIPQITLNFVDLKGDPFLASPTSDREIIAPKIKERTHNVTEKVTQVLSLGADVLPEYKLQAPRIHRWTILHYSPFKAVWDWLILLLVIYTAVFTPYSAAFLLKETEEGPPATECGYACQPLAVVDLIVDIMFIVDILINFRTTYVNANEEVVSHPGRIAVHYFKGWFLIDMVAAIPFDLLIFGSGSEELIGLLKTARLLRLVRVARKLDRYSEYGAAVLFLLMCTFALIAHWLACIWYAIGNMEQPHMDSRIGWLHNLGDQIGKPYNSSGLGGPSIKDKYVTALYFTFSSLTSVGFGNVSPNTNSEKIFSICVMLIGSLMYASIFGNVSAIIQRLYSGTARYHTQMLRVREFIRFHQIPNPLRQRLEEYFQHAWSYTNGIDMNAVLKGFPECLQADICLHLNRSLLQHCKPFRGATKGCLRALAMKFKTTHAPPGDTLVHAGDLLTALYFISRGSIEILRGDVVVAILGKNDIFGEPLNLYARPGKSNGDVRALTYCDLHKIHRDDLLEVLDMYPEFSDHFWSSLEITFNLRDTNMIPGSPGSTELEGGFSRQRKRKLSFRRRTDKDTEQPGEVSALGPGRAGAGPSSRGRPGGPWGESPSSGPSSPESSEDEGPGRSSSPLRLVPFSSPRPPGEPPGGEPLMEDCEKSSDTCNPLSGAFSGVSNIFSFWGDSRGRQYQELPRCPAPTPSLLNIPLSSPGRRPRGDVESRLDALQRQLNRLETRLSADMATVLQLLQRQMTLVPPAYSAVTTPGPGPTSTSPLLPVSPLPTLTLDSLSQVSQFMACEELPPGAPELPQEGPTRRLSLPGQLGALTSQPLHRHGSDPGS
`Cc1ccc(S(=O)(=O)Oc2ccc(/C=C3\C(=N)N4N=C(S(C)(=O)=O)SC4=NC3=O)cc2)cc1` was tested, and the “hERG current change (%, negative = inhibition) at 10uM” value was -29.9%. In the case of `Cc1c(NC(=O)C(C)N2C(=O)C3CCCCC3C2=O)c(=O)n(-c2ccccc2)n1C` (centres unmarked), the “hERG current change (%, negative = inhibition) at 10uM” value is reported as 18.8%. `Cc1cc(C)c(N2C(=O)CCCC2=O)c(Cl)c1` was tested, and the “hERG current change (%, negative = inhibition) at 10uM” value was 0.934%. For `C/C(=N\NC(=O)c1ccc(NS(=O)(=O)c2cccs2)cc1)c1ccccn1`, the “hERG current change (%, negative = inhibition) at 10uM” value was -12.3%. For `OC(c1ccccc1)c1nc2ccccc2[nH]1` (centres unmarked), the “hERG current change (%, negative = inhibition) at 10uM” value was 12.9%. For `COC(=O)N/N=C\c1ccc(OC/C=C/c2ccccc2)cc1`, the “hERG current change (%, negative = inhibition) at 10uM” value was 15%. With `Cc1cccc(NC(=O)CSc2nc(N)c(NC(=O)c3ccccc3F)c(=O)[nH]2)c1` the “hERG current change (%, negative = inhibition) at 10uM” value was 17.3%. In the case of `Cc1ccc(NC(=O)CN(C)C(=O)C(C)OC(=O)c2ccccc2NCCO)cc1` (centres unmarked), the “hERG current change (%, negative = inhibition) at 10uM” value is reported as 4.93%. With `CC(=O)Oc1ccc(C(=O)O)cc1OC(C)=O` the “hERG current change (%, negative = inhibition) at 10uM” value was 4.12%. `COc1cccc(NC(=O)Cn2c(=O)n(-c3cc(OC)c(OC)c(OC)c3)c(=O)c3ccccc32)c1` was tested, and the “hERG current change (%, negative = inhibition) at 10uM” value was 18.6%. `O=C(c1ccccc1)c1cc([N+](=O)[O-])ccc1N1CCCC1` was tested, and the “hERG current change (%, negative = inhibition) at 10uM” value was -12%. For `C[C@H](NC(=O)COc1ccc(Cl)cc1)C(=O)N1CCC2(CC1)NCCc1[nH]cnc12`, the “hERG current change (%, negative = inhibition) at 10uM” value was 20.5%. For `CC(=O)Nc1cc(Br)ccc1O`, the “hERG current change (%, negative = inhibition) at 10uM” value was 1.29%. In the case of `Cc1ccc(C)c(NC(=S)N2CCC(NC(=O)c3cccc(F)c3)CC2)c1`, the “hERG current change (%, negative = inhibition) at 10uM” value is reported as 1.08%. In the case of `O=C(Nc1ccno1)Nc1ccc(Cl)cc1Cl`, the “hERG current change (%, negative = inhibition) at 10uM” value is reported as 20.9%. `O=C(COC(=O)COc1cccc(C(F)(F)F)c1)Nc1ccc(N2CCOCC2)cc1` was tested, and the “hERG current change (%, negative = inhibition) at 10uM” value was 12.3%. For `Cc1ccc(-c2noc(CN(C)C(=O)c3ccoc3C)n2)cc1`, the “hERG current change (%, negative = inhibition) at 10uM” value was -4.92%. In the case of `CC(C(=O)O)c1ccc2c(c1)[nH]c1ccc(Cl)cc12` (centres unmarked), the “hERG current change (%, negative = inhibition) at 10uM” value is reported as 25.7%. In the case of `Cc1cc(C)nc(N(C#N)Cc2ccccc2C)n1`, the “hERG current change (%, negative = inhibition) at 10uM” value is reported as -51.4%. For `O=C(NCCN1CCOCC1)c1cc(-c2ccc(Cl)c(Cl)c2)on1`, the “hERG current change (%, negative = inhibition) at 10uM” value was -17.6%. With `CC(CN1CCN(C)CC1)OC(=O)c1ccc(Cl)cc1Cl.Cl` (centres unmarked) the “hERG current change (%, negative = inhibition) at 10uM” value was -33.6%. `O=C(COC(=O)c1cccc([N+](=O)[O-])c1)NCC1CCCO1` (centres unmarked) was tested, and the “hERG current change (%, negative = inhibition) at 10uM” value was 8.06%. For `C/C(Cl)=C\Cn1c(Nc2ccc(C)cc2)nc2c1c(=O)n(C)c(=O)n2C`, the “hERG current change (%, negative = inhibition) at 10uM” value was 4.71%. For `CC1CCC/C(=C\Nc2ccccc2C(=O)O)C1=O` (centres unmarked), the “hERG current change (%, negative = inhibition) at 10uM” value was -5.76%. `CS(=O)(=O)N(CC(=O)N1CCCC1)c1ccccc1F` was tested, and the “hERG current change (%, negative = inhibition) at 10uM” value was 19.4%. With `Cc1ccc(S(=O)(=O)NNC(=O)c2c(O)c3ccccc3[nH]c2=O)cc1` the “hERG current change (%, negative = inhibition) at 10uM” value was 1.41%. For `COc1cccc(NC(=S)N(CCN(C)C)Cc2cccs2)c1`, the “hERG current change (%, negative = inhibition) at 10uM” value was -10.5%. For `Cc1cc(OCC(=O)NCC(O)c2ccccc2)c2c3c(c(=O)oc2c1)CCC3` (centres unmarked), the “hERG current change (%, negative = inhibition) at 10uM” value was 16.1%. For `CCc1ccc(NC(=O)CSc2nnc(C3CC3)n2CC2CCCO2)cc1` (centres unmarked), the “hERG current change (%, negative = inhibition) at 10uM” value was -22.4%. With `CC(C)N(Cc1ccccc1)C(=O)CC(=O)N(Cc1ccccc1)C(C)C` the “hERG current change (%, negative = inhibition) at 10uM” value was -15.6%. For `Cc1ccc(-n2ncc3c2CCCC3NC(=O)c2ccccc2N2CCOCC2)cc1C` (centres unmarked), the “hERG current change (%, negative = inhibition) at 10uM” value was -34.1%. `Cc1nc2ccc(S(=O)(=O)NCC(=O)N3CCN(c4ccccn4)CC3)cc2s1` was tested, and the “hERG current change (%, negative = inhibition) at 10uM” value was 3.8%. `Cc1oc(-c2ccc(-c3ccccc3)cc2)nc1CN(C)C1CCOC1` (centres unmarked) was tested, and the “hERG current change (%, negative = inhibition) at 10uM” value was -55.8%. For `CC(Oc1ccc(Cl)cc1)C(=O)NCCCn1ccnc1` (centres unmarked), the “hERG current change (%, negative = inhibition) at 10uM” value was -7.09%. With `O=C(NCC1CCCO1)c1cc2c([nH]c3ccccc32)c(-c2cccc(Br)c2)n1` (centres unmarked) the “hERG current change (%, negative = inhibition) at 10uM” value was -9.55%. In the case of `C=CCN1C(=O)/C(=C2\SC(N3CCOCC3)=NC2=O)c2cc(Br)ccc21`, the “hERG current change (%, negative = inhibition) at 10uM” value is reported as -7.39%. `CCCOc1cccc(C(=O)NC(=S)Nc2cccc(NC(=O)c3ccccc3Cl)c2)c1` was tested, and the “hERG current change (%, negative = inhibition) at 10uM” value was 3.2%. `Cc1ccc(OCC(=O)Nc2ccccc2-c2ccccc2)cc1` was tested, and the “hERG current change (%, negative = inhibition) at 10uM” value was 9.37%. For `CCOCCCNC(=O)C(NC(=O)CNC(=O)c1ccccc1)c1ccc(OC)cc1` (centres unmarked), the “hERG current change (%, negative = inhibition) at 10uM” value was 15%. For `O=C(CSc1nnc(-c2ccncc2)o1)Nc1cc(F)ccc1F`, the “hERG current change (%, negative = inhibition) at 10uM” value was 12.1%. With `Cn1c2ccccc2c2cnn(CC(=O)NCCCN3CCN(c4ccccc4F)CC3)c(=O)c21` the “hERG current change (%, negative = inhibition) at 10uM” value was -76.3%. `Cc1ccccc1OCc1nc2ccccc2[nH]1` was tested, and the “hERG current change (%, negative = inhibition) at 10uM” value was 1.95%. For `COc1cc(Cl)ccc1NC(=O)COc1ccccc1C(=O)N1CCN(c2ccc(O)cc2)CC1`, the “hERG current change (%, negative = inhibition) at 10uM” value was -53.9%. With `COc1cc(/C=C(\C#N)c2nc3ccccc3[nH]2)ccc1O` the “hERG current change (%, negative = inhibition) at 10uM” value was 6.67%. `Cc1c(O)cc2c(c1O)C(=O)CC(c1ccccc1)O2` (centres unmarked) was tested, and the “hERG current change (%, negative = inhibition) at 10uM” value was 1.79%. For `CCOc1cc(N2CCOCC2)c(OCC)cc1NC(=O)COC(=O)COc1cc(C)cc(C)c1`, the “hERG current change (%, negative = inhibition) at 10uM” value was -0.128%. With `Cc1cc([N+](=O)[O-])ccc1NCc1ccc2c(c1)OCCO2` the “hERG current change (%, negative = inhibition) at 10uM” value was 5.37%. For `S=C(NCc1ccccc1)NCc1ccccn1`, the “hERG current change (%, negative = inhibition) at 10uM” value was 0.0213%. In the case of `COc1cccc(NC(=O)C2CCN(S(=O)(=O)c3ccc4[nH]c(=O)oc4c3)CC2)c1`, the “hERG current change (%, negative = inhibition) at 10uM” value is reported as 8.6%. `CCOc1ccc(NC(=O)CC2C(=O)NCCN2C(=O)c2ccc(Cl)cc2)cc1` (centres unmarked) was tested, and the “hERG current change (%, negative = inhibition) at 10uM” value was -34.8%. In the case of `CCOc1ccc(N(CC(=O)NC2CCCC2)S(=O)(=O)c2ccccc2)cc1`, the “hERG current change (%, negative = inhibition) at 10uM” value is reported as 12%. In the case of `CCOC(=O)NC(=O)c1cn(CCN(C)C)c(=O)[nH]c1=O`, the “hERG current change (%, negative = inhibition) at 10uM” value is reported as 18.6%. For `Cc1c(C(=O)Nc2c3c(nn2C(C)(C)C)CS(=O)(=O)C3)cccc1[N+](=O)[O-]`, the “hERG current change (%, negative = inhibition) at 10uM” value was 1.85%. With `CN(CCOc1ccccc1)c1ccc(S(=O)(=O)N2CCCCC2)cn1` the “hERG current change (%, negative = inhibition) at 10uM” value was -11.6%. For `O=S(=O)(NCC(c1cccnc1)N1CCOCC1)c1ccccc1` (centres unmarked), the “hERG current change (%, negative = inhibition) at 10uM” value was 4.6%. For `CC(C)CCc1noc(CN2CCN(c3ccc(Cl)cn3)CC2)n1`, the “hERG current change (%, negative = inhibition) at 10uM” value was -34.2%.
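Further: peak tail current of the secondary pulse compared with the same well before compound.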
